Test results published in PubChem BioAssay AID938 (National Center for Advancing Translational Sciences (NCATS), 2007).
Among all 73,000 compounds or so, about 1,800 (2.5%) were called active. Inconclusive means that the source gave no clear call. Such entries were picked first, then a sample of the others. The call rests on the fitted dose curve; in most records, active means well fitted activation curve with a large enough effect; inconclusive means small, poorly fitted or top-dose-only effect; inactive means no such curve, though single readings can be large or run the other way. No potency is given beside an inconclusive call; the fits are too rough.

test: qHTS Assay for Agonists of the Thyroid Stimulating Hormone Receptor: Activators of Intracellular cAMP Concentrations in Parental HEK 293; settings: parental HEK293 CNG cAMP sensor, membrane potential fluorescence; series mostly up to 57.1 µM; further: nearly all actives have a fitted effect of over 55% in size
How it was run: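 Parental HEK 293 cells stably expressing a cAMP-gated CNG channel were loaded with membrane potential dye containing 100 uM RO 20-1724 for 60 min. Compound added for 30 min; depolarization read as fluorescence intensity at 590 nm.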
Potency means the concentration at half of the fitted maximal effect; tags describe the fitted curve by direction and shape.

SMILES	Potency
Cc1nc(C)c2c(c1C(F)(F)F)-c1ccccc1C2(F)F	inconclusive [activator, single point]
CC(=O)c1c(C)[nH]c(C(=O)NCc2ccccn2)c1C	inactive
CCN(Cc1cc2cc(C)ccc2[nH]c1=O)C(=O)c1cccc(OC)c1	inconclusive [activator, partial curve]
COCCn1c(SCCN2CCCCC2)nc2ccccc2c1=O	inconclusive [activator, single point]
CC(C)n1c(Nn2cnnc2)nc2ccccc21	inconclusive [activator, single point]
OC(COc1ccc(Cl)c2ccccc12)CN1CCN(c2ccccn2)CC1 (stereo not given)	inactive
CC(C)CCn1c(SCC#N)nc2c(sc3ccccc32)c1=O	inconclusive [activator, partial curve]
C=CCn1c(SCc2csc(C)n2)nc2sc3c(c2c1=O)CCCCC3	inconclusive [activator, single point]
CC(C)(C)C(=O)c1sc(Nc2ccccc2)nc1N	inactive
Cc1ccc(-c2noc(CCC(=O)N3CCN(c4cccc(C(F)(F)F)c4)CC3)n2)cc1	inconclusive [activator, single point]
O=c1c2ccccc2nnn1CSc1nc2cc(Cl)ccc2c(=O)n1Cc1ccco1	active: 2 µM
CCOc1ccc(C2C(C(=O)c3ccco3)=C(O)C(=O)N2Cc2cccnc2)cc1 (stereo not given)	inconclusive [activator, single point]
CCC/C=C(\CCC)C(NC(=O)C(C)(C)C)c1ccc(C(=O)OC)cc1 (stereo not given)	active: 15.8 µM
COC(=O)c1ccc(C(NC(=O)OCc2ccccc2)/C(C)=C/[C@@H](C)C(=O)NCc2cc(C)on2)cc1 (stereo not given in full)	inconclusive [activator, single point]
COc1nc(-c2ccccc2)cc(-c2ccccc2)n1	inconclusive [activator, single point]
COC(=O)C1CCN(C(=O)c2ccc(NC(C)=O)cc2)CC1	inconclusive [activator, single point]
COc1ccc(N2CCN(Cc3nc4c(c(=O)n(C)c(=O)n4C)n3CCc3ccccc3)CC2)cc1	inconclusive [activator, single point]
COc1ccc(C(=O)Nc2cc(OC)ccc2OC)cc1	inactive
COCc1cc(=O)n2c(-c3ccccc3OC)n[nH]c2n1	inconclusive [activator, single point]
CCc1ccc2[nH]c(=O)c(CN(CCCN3CCOCC3)C(=O)Nc3ccc(Cl)cc3)cc2c1	inconclusive [activator, single point]
